# The supplement of paper PMC3334620
# Whole data set: some 33,000 sequences, median “E-score (-0.5 to 0.5)” near -0.011, cut for the highest 2% near 0.28. Some of the results follow.
# Biological target: T1, Gcr1 (UniProt P07261)
# T1 sequence: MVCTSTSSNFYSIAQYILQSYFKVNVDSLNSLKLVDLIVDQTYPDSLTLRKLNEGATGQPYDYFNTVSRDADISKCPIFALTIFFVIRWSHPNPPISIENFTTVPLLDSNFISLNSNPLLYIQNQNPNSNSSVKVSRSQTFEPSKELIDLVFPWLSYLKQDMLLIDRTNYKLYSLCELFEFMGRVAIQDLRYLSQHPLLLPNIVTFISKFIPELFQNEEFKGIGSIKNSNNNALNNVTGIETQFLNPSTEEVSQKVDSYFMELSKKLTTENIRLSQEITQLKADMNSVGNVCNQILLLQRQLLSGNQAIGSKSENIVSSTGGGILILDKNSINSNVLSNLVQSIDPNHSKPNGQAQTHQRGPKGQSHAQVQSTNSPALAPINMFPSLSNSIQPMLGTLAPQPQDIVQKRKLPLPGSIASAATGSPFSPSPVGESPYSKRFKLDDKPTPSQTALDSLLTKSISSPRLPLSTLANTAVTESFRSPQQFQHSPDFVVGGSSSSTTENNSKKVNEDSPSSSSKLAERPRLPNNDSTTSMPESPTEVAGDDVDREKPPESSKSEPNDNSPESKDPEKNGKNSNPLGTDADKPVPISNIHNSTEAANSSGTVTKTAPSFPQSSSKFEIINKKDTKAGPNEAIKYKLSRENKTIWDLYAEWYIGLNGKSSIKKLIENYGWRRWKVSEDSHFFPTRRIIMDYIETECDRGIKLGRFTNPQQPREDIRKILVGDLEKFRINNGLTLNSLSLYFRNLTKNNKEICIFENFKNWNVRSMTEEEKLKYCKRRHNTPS
# Assay: PBM E-score (8-mer binding enrichment) (E-score (-0.5 to 0.5)); higher = stronger / more preferred TF binding; most listed sequences are background and not binding sites
# Details: protein concentration: 100 nM; construct: GST-full length
# Description: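 Universal 'all 10-mer' protein binding microarrays (Agilent AMADID 015681) probed with GST-tagged S. cerevisiae TFs (full-length or DBD) made by in vitro transcription/translation (PURExpress), about 100-200 nM. Bound TF was detected with fluorescent anti-GST. Each ungapped 8-mer (which stands for itself and its reverse complement) is scored by the PBM enrichment score (E-score), a modified Wilcoxon-Mann-Whitney statistic from -0.5 to +0.5, computed with the Universal PBM Analysis Suite. Scale: above 0.35 generally sequence-specific binding.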
row,Sequence,PBM E-score
1,GTAGAACA,-0.0278
2,GGCGACCA,0.205
3,CACACAAG,0.128
4,GCTTTCTA,-0.196
5,AACTAATT,0.023
6,CGTCGTTA,0.13
7,CCAGTGTA,0.156
8,GCTTTAGA,-0.0822
9,AGGATATA,0.121
10,AATAGCCT,-0.124
11,ACAGCATG,-0.219
12,ACTGCATG,-0.0346
13,TCAGTTAA,0.0422
14,TGGAGACA,0.107
15,GTCGGACA,0.00135
16,CACACATC,-0.0508
17,CCATCTGA,0.106
18,CAAGCAAA,-0.185
19,TTCAAAAA,0.0814
20,TAAGCTTA,-0.244
21,CCTGGATA,0.0822
22,ATGCCCGG,0.0443
23,AAAATCCT,-0.0139
24,GTATGCAC,-0.248
25,CACTTTTC,0.032

row,Sequence,PBM E-score
1,GATCGGCC,-0.0306
2,ATCCTTTG,0.12
3,CCGCCGCG,0.136
4,ACCTTTTA,0.28
5,CCTGCCGC,-0.0896
6,TCGGTAAA,-0.0138
7,GATTGTGC,-0.244
8,ACATCGCG,-0.069
9,TAAGTTAA,-0.0129
10,CGTCAACG,-0.0661
11,ACCAGCTC,-0.149
12,GAAAAATA,-0.00613
13,AAGGACAT,-0.126
14,GCTGCCAC,0.301
15,AGTCTCCG,-0.0241
16,ACTGACGA,0.0846
17,AGATACTC,0.125
18,ACAGGCCG,0.0882
19,TGGTGGAA,0.124
20,AACACTCA,-0.0249
21,AGGAGCCA,0.214
22,GCAGTGTA,-0.206
23,GAGTACTC,-0.0973
24,TTCCTCAA,0.105
25,ACAGCTGG,-0.215

row,Sequence,PBM E-score
1,AACCAGTG,-0.195
2,CGAAGCAG,-0.0727
3,ACCAAAGT,0.0467
4,GTAAAAGA,0.00859
5,GAACCTTC,-0.0114
6,GAAAGCGC,-0.166
7,ATGGCGTG,-0.0168
8,AGATTCGC,0.0415
9,ATACCACG,0.0534
10,CACTGCAG,-0.112
11,CTAATTTA,0.291
12,CCTAGACG,-0.125
13,CACTTTAA,0.0656
14,CGTGTACA,-0.0328
15,GATATTCA,0.0728
16,AGCGCGAA,-0.103
17,CTGCGGAA,0.0547
18,GCCCCCCC,-0.0192
19,AATTAGCT,0.083
20,GACCAGCA,0.0731
21,AACACCGT,-0.132
22,ACAGCCCT,-0.19
23,GTTATCTA,0.0511
24,CGACATCG,-0.0982
25,CTCTCACC,-0.129

row,Sequence,PBM E-score
1,ACGGATAT,-0.0661
2,CCAGGTCC,-0.00479
3,TATTGACA,-0.243
4,AGGGTTCG,-0.0648
5,TCCTTGAA,-0.0928
6,ACGCATGC,0.0121
7,CCAGCGGA,0.0309
8,ACTAAATA,0.269
9,CGATAGCG,0.00164
10,CAACGTAC,-0.0815
11,AAGGCTTG,-0.0951
12,CCCTCTTA,-0.0414
13,CTCGGAAA,0.0246
14,CTTGCAGA,-0.144
15,GGATGTTA,0.244
16,ACGCCGTA,0.112
17,CCAAATAC,0.0871
18,ACAACACT,-0.0251
19,AACATAGC,-0.0652
20,GCATAGGC,-0.227
21,CACATCCA,0.0944
22,CAAGCATA,0.0591
23,AGGGGTAT,-0.0579
24,CTATAATA,0.176
25,GTCGCGGA,-0.188

row,Sequence,PBM E-score
1,CCGTTCGA,-0.175
2,CGCGGCTC,0.117
3,CTGCAGAA,-0.206
4,GATTATGA,0.0052
5,CAAGTTCA,0.00963
6,GCTTCGGA,0.157
7,CATTTAGG,0.027
8,AGCTGGTG,0.0386
9,CCTTAAAG,0.0175
10,CCGTGGCG,-0.102
11,CATGGCGG,-0.0542
12,ATACAGAA,0.16
13,AGAAACAA,0.0697
14,CTTGCAAA,0.0177
15,GAATTGTA,0.0321
16,CATAACCC,-0.121
17,AACCACGA,-0.123
18,CAGATGCA,0.0547
19,ATAATCGC,0.0337
20,GGAGGCTA,0.185
21,CCCAAGGC,-0.167
22,GTTGGGTA,-0.0149
23,ACCGGTTA,0.212
24,CCCGCCGA,-0.146
25,ACATTAAG,0.0636

row,Sequence,PBM E-score
1,AATTTTAC,0.0945
2,ACCACGGG,-0.168
3,CCAAAAAG,0.131
4,GTGTTATA,-0.0287
5,AAAATATT,0.0735
6,GCTCTCCC,-0.146
7,CTGTAACC,0.0204
8,CAGGGATG,-0.0679
9,CGATTTAA,0.158
10,CATTAAAC,0.045
11,ATGTCCGA,0.0142
12,AGTGGACC,-0.0505
13,AATGGGGC,0.0308
14,GAGTAACA,-0.0312
15,GATTTGGA,-0.0989
16,CATAAATC,0.0709
17,GGGAGGGA,0.00084
18,CCGGGAAA,-0.00328
19,AAAGCATG,-0.101
20,ATTATGCA,0.0304
21,GCATTCCC,-0.139
22,TACCTCAA,0.0776
23,ACGGAAGC,0.344
24,CACCCTGC,0.141
25,ATCTTCTA,0.206

row,Sequence,PBM E-score
1,AAGGGTCA,-0.267
2,CAAGAGGA,0.072
3,AAAGCAGA,0.101
4,GACCAACC,-0.169
5,GAATTGCC,-0.243
6,ATATTCCC,-0.0929
7,GCAAAGGA,-0.0648
8,ACATACCC,-0.0951
9,ATCAACTA,0.0186
10,AAGGTTTA,0.0367
11,TTGTGAAA,0.0169
12,ACATGATC,0.0272
13,CGCCAGCG,-0.0865
14,AAATCATA,-0.253
15,CGCCAGGA,0.157
16,AGCGACGG,-0.0243
17,ACGAGCAG,-0.144
18,CTATTTCA,0.0146
19,CTGGGCTA,-0.0409
20,ATACGACC,-0.00279
21,CGCGCTCA,0.0209
22,AAGCGAAC,-0.153
